For 22 molecules, binding signal results are on record in publication PMC12136788.

The other results are listed elsewhere or left out.

The chains are these.
B1: chr17:7460970:7461071:-|3pUTR|ENSG00000174282|msi1|total|mutant (ssRNA)
RNA: GGGAGUUCUACAGUCCGACGAUCGGAUGGAGAAGGGAAUCUACUUUCUCCCUGUUUUUUUUUCCUGAUGGUUUCUCCCAGACCCGACCAAACCGCCAGAAAAAUGACCGGGGUCGGAUGGGUGGGUAAGCCCAGGAUUUGCACCAACAGAGGAUUGAGCAUCA
B2: chr14:73713276:73713377:-|CDS|ENSG00000176903|unk|FALSE|unique (ssRNA)
RNA: GGGAGUUCUACAGUCCGACGAUCGGGCAAAGGAGGGGUCUGGAAAGUGUUAUUUAAGCCCCCAACUUCUGAUGCUGAAUUUUUAGAAAGAUUGCACCUCUUCCUAGCUAGAGAGGGGUGGACCGUGCAAGAUGUUGCCCGUGUCAACAGAGGAUUGAGCAUCA
B3: chr6:111694403:111694505:-|CDS|ENSG00000010810|unk|FALSE|bound_elsewhere (ssRNA)
RNA: GGGAGUUCUACAGUCCGACGAUCAAUGGCUUACAUCGAGCGCAUGAAUUAUAUCCAUAGAGAUCUGCGAUCAGCAAACAUUCUAGUGGGGAAUGGACUCAUAUGCAAGAUUGCUGACUUCGGAUUGGCCCGAUUGAUAGAAGACAACAGAGGAUUGAGCAUCA
B4: ENSG00000079335:stop:overlap|stop_codon|ENSG00000079335|stop_codon|NA|stop_codon (ssRNA)
RNA: GGGAGUUCUACAGUCCGACGAUCUUGGUGGAAAUCUUUCAAAAACACAAAACAUGGAACGAUUUGGAGAGGUAAGUUUUCCCUAGGAGAUUCUAUCUUCUUAAAACUGAUGUUCUGCAUUUGUUUCUCAGUUGGACCUAUAUACAACAGAGGAUUGAGCAUCA
B5: chr12:118033712:118033825:-|3pUTR|ENSG00000176871|unk|total|mutant (ssRNA)
RNA: GGGAGUUCUACAGUCCGACGAUCCCUCCGCUGGGAACGAUGGCUUCUGCCCCGUACCUAUCCUUGUGUUUCUGAUGCAGUGGCCGCAUUGGUUCAAGUUCUCUCCUGCUGUGGUCAGAGUUGCUUCGAUGUUGGCCAAGUGCUCAACAGAGGAUUGAGCAUCA
B6: chr12:49764829:49764866:+|3pUTR|ENSG00000139644|msi1_unk|FALSE|overlapping (ssRNA)
RNA: GGGAGUUCUACAGUCCGACGAUCACUUUUAAAGAAAAUACCUAACAGAUUUUUAAUAUAGUUAUCUCUACCACUUUCUUUUCUAGUUUCUUGAUUUUCAGCUCAGGCUGCAUUCUAACUCAUACUGUGAAGACAAAGGUGUUUCAACAGAGGAUUGAGCAUCA
B7: chr5:72208420:72208520:+|3pUTR|ENSG00000131711|msi1_unk|total|mutant (ssRNA)
RNA: GGGAGUUCUACAGUCCGACGAUCCUCAUGAUCAUGACCUUUUUGGCCGUAUUCUUAAACAAAAUUCUACAGAGACUAAAUGUCCGCGAUGAUCCUCCAUUUUCAAUUUUAACCAAUUCUGUCCCCUUUCUCAAAACCCUGAGCCAACAGAGGAUUGAGCAUCA
B8: chr11:9429001:9429102:+|CDS|ENSG00000205339|msi1_unk|FALSE|overlapping (ssRNA)
RNA: GGGAGUUCUACAGUCCGACGAUCGGUACUUCACUAUUUUUGUGAAGUGAAGUUCAAAAGUGAUCAGAACCUUCAAACAGCCUUAGAGCUAACAAGAAGAUGUCUGAUUGAUGAUAGAGAAAUGCCUGUGAAAGUGGAAGCUGCCAACAGAGGAUUGAGCAUCA
B9: chr6:107883018:107883119:-|CDS|ENSG00000025796|unk|total|mutant (ssRNA)
RNA: GGGAGUUCUACAGUCCGACGAUCAAGGAAGAUGAAGAAGAAGUUUCAGAUAAGGGCAGUGAUUCUGAAGAAGAAGAAACCAACCGAGAUUCCCAAAGUGAGAAAGAUGAUGGCCGUGACAGAGACUCUGACCGAGAGCAAGAUCAACAGAGGAUUGAGCAUCA
B10: chr11:2397021:2397122:+|3pUTR|ENSG00000110651|msi1|total|mutant (ssRNA)
RNA: GGGAGUUCUACAGUCCGACGAUCUUGGGGUUUUGUUUUUGUUCUGAACUUUCCUGUUACCUUUUCAGGGCUGACGUCACAUGCCGGUGGCGUGUAUGAGUGGAGACGGGCCUGGGUCUUGGGGACUGGAGGGCAGGGGUCCUUCAACAGAGGAUUGAGCAUCA
B11: ENSG00000107863:be:win_5101|CDS|ENSG00000107863|bound_else_gene|NA|bound_elsewhere_windowed (ssRNA)
RNA: GGGAGUUCUACAGUCCGACGAUCGAUACUCUUUCCAGGAAAAAAUCAGCUAGAUUCAAGUCAGAUAGUGGAAGUCUAGGAGAUGCCAAGAAUGAGAAAGAAGCACCUUCGUUAACUAAAGUGUUUGAUGUUAUGAAAAAAGGACAACAGAGGAUUGAGCAUCA
B12: chr12:68839811:68839877:+|CDS_3pUTR|ENSG00000135679|msi1_unk|total|mutant (ssRNA)
RNA: GGGAGUUCUACAGUCCGACGAUCAUAAGCCCUGCCCAGUAUGCCGACAACCAAUUCAAAUGAUUGUGCUAACUUAUUUCCCCCCGUUGACCUGUCUAUAAGAGAAUUAUAUAUUUCUAACUAUAUAACCCCCGGAAUUCCGACCAACAGAGGAUUGAGCAUCA
B13: ENSG00000118785:stop:overlap|stop_codon|ENSG00000118785|stop_codon|NA|stop_codon (ssRNA)
RNA: GGGAGUUCUACAGUCCGACGAUCAGUUUCGCAGACCUGACAUCCAGGUAAAUCCUUUAACAGACACACCUGAUGGUUCUGACUAGCGCUCAAGUCUAGGAAACCACAGUUUGCAUAUUCAUUCAUUCAUUCAUCCAUUCAUUCCAACAGAGGAUUGAGCAUCA
B14: ENSG00000070961:be:win_4801|3pUTR|ENSG00000070961|bound_else_gene|NA|bound_elsewhere_windowed (ssRNA)
RNA: GGGAGUUCUACAGUCCGACGAUCCUUGUUUGUAAACAUAAAUAAAUAUGCCCUUUUAUUAAAUAAAUUCAUGGCAAUGUUUUUUUAAAAGACAUUUCAGCUUCUUUACUCAGUUCUGCAUAUACAGUGCAUCAGUCUGUUCUCCAACAGAGGAUUGAGCAUCA
B15: ENSG00000198589:be:win_8651|3pUTR|ENSG00000198589|bound_else_gene|NA|bound_elsewhere_windowed (ssRNA)
RNA: GGGAGUUCUACAGUCCGACGAUCUUGCUCAAAGAAGCAAAAUAUUUUUUAAAGUUAUUAAUAAUUGCUAUUUUUGUAGUCUUUGCUUGACUUUUUUGGGGGGGAUUAGCAAAGCAGAAAACUGGCUGCUGGGUUCUGUAGUUUCAACAGAGGAUUGAGCAUCA
B16: chrX:8795077:8795420:-|CDS|ENSG00000183304|control|control|control (ssRNA)
RNA: GGGAGUUCUACAGUCCGACGAUCAGCAGCAGAAGCCGCAGCAGCAGCAGAAGCCGCAGCAGCAGCAGCAGAAGUAAUAGUAGUAGAAGACGAAGAGGAGGAAGAGAAGGAGGAGGAGGAGGAGAAAGAAGAGGAGGAAGAAGACAACAGAGGAUUGAGCAUCA
B17: chr10:11920118:11920232:-|3pUTR|ENSG00000151461|unk|total|mutant (ssRNA)
RNA: GGGAGUUCUACAGUCCGACGAUCGCCGUAUAUUCCGUCGGAGAGCACAUCUGUAUGCGACAACUUGAUUACAUCUUUUUUUCCCGCUAUUUUGCAUUUUUUCUUUUACCAUGUUUCAGUUUCUGCAUGCCGAUUUAAAUAAAACAACAGAGGAUUGAGCAUCA
B18: chr3:66417149:66417250:-|CDS|ENSG00000144749|msi1|FALSE|unique (ssRNA)
RNA: GGGAGUUCUACAGUCCGACGAUCCAACAAGAUUCGCAGCGUGGAGGGGAGCCAGCUGAAGGCCUACCUUUCCUUAGAAGUGUUAGAUCUGAGUUUGAACAACAUCACGGAAGUGCGGAACACCUGCUUUCCACACGGACCGCCCAACAGAGGAUUGAGCAUCA
B19: ENSG00000132640:stop:overlap|stop_codon|ENSG00000132640|stop_codon|NA|stop_codon (ssRNA)
RNA: GGGAGUUCUACAGUCCGACGAUCACCUUAUCCCGGCCCCAAACUGGCAGGGUCUUUAUCCCACCAUUAGAGAGAGUAUGUUUUAGCUGUUGGGAGCUCUGUGUUCCAUGCGAUGUUUUACGGAGAACUUGCAGAGGACAAAGACAACAGAGGAUUGAGCAUCA
B20: chr13:36848462:36848578:-|3pUTR|ENSG00000120693|unk|FALSE|unique (ssRNA)
RNA: GGGAGUUCUACAGUCCGACGAUCAAAUACAUAGAAUGUAUACUGUUCUUAUUUUUUUUAAUCACCGUUUGUUUUGUGCUUUCUAGUUAACCUGAUGCCAGUACAGUGCAAUUGGAAAAGCAGGACUUUGGUGCCUGUGCUAUACAACAGAGGAUUGAGCAUCA
B21: chr11:111726697:111726798:+|3pUTR|ENSG00000170145|unk|FALSE|unique (ssRNA)
RNA: GGGAGUUCUACAGUCCGACGAUCGGAAGCUUCCAAGCAGUUUUCUCUUCAUCACUACUAACAAACAAAACACUAAGAAGGCUUAGUAUCGCUCUUUUUCUGCGGGGCUACUCUGAAGUACUGACUUGCUUUCCAGUCUGAUUCCAACAGAGGAUUGAGCAUCA
B22: chr13:27440139:27440263:-|CDS|ENSG00000122033|unk|FALSE|unique (ssRNA)
RNA: GGGAGUUCUACAGUCCGACGAUCAAUGAAGGAAAAAAGACAAAAAAGAAUAAAACAGCUUUUAGUAACGUUGGAAGAAAAAUUAGUCAGCGAGUUAUUCACUUAUUUGAUGAGAAGGGCAAUGAUUUGGGAAACAUGCACCGACAACAGAGGAUUGAGCAUCA

In this test the target is T1, UNK ZnF1-6 (called full-length) (human, UniProt Q9C0B0 30-357).
T1 sequence: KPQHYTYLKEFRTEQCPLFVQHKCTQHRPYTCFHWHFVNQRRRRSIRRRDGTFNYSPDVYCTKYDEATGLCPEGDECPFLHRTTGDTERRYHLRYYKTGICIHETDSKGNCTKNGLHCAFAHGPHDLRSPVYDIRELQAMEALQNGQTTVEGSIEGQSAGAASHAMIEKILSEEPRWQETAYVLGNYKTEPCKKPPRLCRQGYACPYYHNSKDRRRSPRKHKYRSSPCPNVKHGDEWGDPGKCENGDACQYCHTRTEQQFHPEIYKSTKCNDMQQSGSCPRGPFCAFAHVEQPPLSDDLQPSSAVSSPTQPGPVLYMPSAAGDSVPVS
The experiment in a line: nsRBNS (natural sequence RNA bind-n-seq); RBNS binding buffer (assumed for nsRBNS): 25 mM Tris pH 7.5, 150 mM KCl, 3 mM MgCl2, 0.01% Triton X-100, 500 ug/ml BSA, 20 U/ml SUPERase-In, 4 C; UNK is unkempt and MSI1 is Musashi-1; names of the RNAs are library labels; protein concentration not given here; high values mean tight binding.
Molecule B1 had a binding signal of 0.495 enrichment R.
Under B2 stands 0.861 enrichment R; under B3, 0.509 enrichment R; under B4, 1.83 enrichment R.
The figure for B5 is 0.583 enrichment R; for B6 it is 1.38 enrichment R; for B7 it is 1 enrichment R.
In turn, B8 gave a binding signal of 0.336 enrichment R.
Take B9: the binding signal came to 0.797 enrichment R.
Under B10 stands 1.67 enrichment R; under B11, 0.416 enrichment R.
Under B12 stands 0.616 enrichment R; under B13, 0.593 enrichment R; under B14, 0.703 enrichment R.
The figure for B15 is 1.45 enrichment R.
With B16, the binding signal stood at 1.15 enrichment R.
Molecule B17 registered a binding signal of 0.775 enrichment R.
Under B18 stands 0.658 enrichment R; under B19, 1.11 enrichment R.
Take B20: the binding signal came to 1.82 enrichment R.
The figure for B21 is 0.325 enrichment R; for B22 it is 0.738 enrichment R.
